From PubChem BioAssay (NCI)
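Cultured in 96-well plates, cells were exposed to test compound for 48 hours across five concentrations. Abbreviation: GI50, concentration required for 50% inhibition of growth. TGI marks complete inhibition of growth.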

Each compound was assayed on NCI-H322M lung (assay: inhibition of tumour cell growth, NCI panel, 48 h).

Compared with `CC(=O)NCC1=C(C)C=C2C(=O)[C@](C)(O)C3(CC3)C(C)=C21`, `COc1ccc(C(C)=C(c2ccc(OCCCN(C)C)cc2)c2ccc(OCCCN(C)C)cc2)cc1` is 67-fold higher in GI50: 0.0386 µM for the first, 2.6 µM for the second.

`Cc1ccc(C(=O)C(c2c[nH]c3ccccc23)c2c[nH]c3ccccc23)cc1` showed a GI50 of 14.6 µM.

First: CC(=O)NCC1=C(C)C=C2C(=O)[C@](C)(O)C3(CC3)C(C)=C21
Second: COc1ccc(C(C)=C(c2ccc(OCCCN(C)C)cc2)c2ccc(OCCCN(C)C)cc2)cc1
The TGI of the first is 16-fold lower: 0.328 µM for the first, 5.2 µM for the second.

For `Cc1ccc(C(=O)C(c2c[nH]c3ccccc23)c2c[nH]c3ccccc23)cc1`, the TGI was 28.2 µM.
